# The inconclusive results got no clear call from the source; some entries with a clear call stand among them for comparison. For some of these results: A potency beside an inconclusive call is a rough fit, not a confirmed value. The source made the active and inactive calls. Calls come from the whole dose curve; as a rule, active = well fitted curve in the direction sought with a large enough effect; inconclusive = small, poorly fitted or top-dose-only effect, or another doubt; inactive = no such curve, though single readings can be large; an effect the other way counts as inactive or inconclusive.
# Legend:
# [1] = P-glycoprotein substrates identified in KB-8-5-11 adenocarcinoma cell line, qHTS therapeutic library screen (AID 1346987); note: nearly all actives have a fitted effect of over 65% in size
# Method in brief: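 P-gp-mediated resistance screen: KB-8-5-11 cells treated 72 h with compounds in dose-response. CellTiter-Glo viability.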
# [2] = Primary qHTS for inhibitors of nuclear receptor binding SET domain protein 2 (NSD2) in an RCH-ACV wild type WT cells (2C) (AID 1645877); conditions: activity change, negative = cell killing: at 44.9 µM (top of the series); note: nearly all actives have a fitted effect of over 70% in size
# [3] = test system: CRL-7250; test: Cytotoxic Profiling of Annotated Libraries Using Quantitative High-Throughput Screening (AID 1296008); conditions: Five cell lines viability, CellTiter-Glo ATP luminescence, 48-72 h; max response: active compounds read low; note: nearly all actives have a fitted effect of over 60% in size
# Method in brief: (§1)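 Cells exposed to compounds for 48 or 72 hr at 37 degrees Celsius. Viability read as ATP-coupled luminescence with CellTiter-Glo after 10 min at room temperature.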
# [4] = test system: HEK293; test: as above; conditions: Five cell lines viability, CellTiter-Glo ATP luminescence, 48-72 h; max response: active compounds read low
# Method in brief: as §1
# [5] = test system: KB-3-1; test: as above; conditions: Five cell lines viability, CellTiter-Glo ATP luminescence, 48-72 h; max response: active compounds read low
# Method in brief: as §1
# [6] = test system: C33A; test: Primary qHTS to identify gynecologic anti-cancer compounds using libraries of approved drugs and bioactive compounds (AID 1345084); conditions: Gynecologic cancer cell panel viability, ATPlite luminescence, 48 h; series mostly up to 57.5 µM; note: nearly all actives have a fitted effect of over 55% in size; for activity change, negative = cytotoxicity: % is set by controls: 0 for no effect and ±100 for the full control effect
# Method in brief: (§2)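 Cell viability after 48 h drug treatment, ATPlite luminescence readout; five doses.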
# [7] = test system: SKOV3; test: as above; conditions: Gynecologic cancer cell panel viability, ATPlite luminescence, 48 h; series mostly up to 57.5 µM
# Method in brief: as §2
# [8] = Primary fluorescence-based thiol-reactive (MSTI) qHTS assay for identification of artifact compounds. (AID 1845221);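 note: thiol-reactive compounds lower the probe fluorescence signal; nearly all actives have a fitted effect of over 65% in size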
# Method in brief: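 Probe: MSTI 4 uM, PBS pH 7.4, 2% DMSO. Incubation 1 h, RT, light-protected. Readout fluorescence 525/598 nm.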
# [9] = test system: CAOV3; test: Primary qHTS to identify gynecologic anti-cancer compounds using libraries of approved drugs and bioactive compounds (AID 1345084); conditions: Gynecologic cancer cell panel viability, ATPlite luminescence, 48 h; series mostly up to 57.5 µM; note: nearly all actives have a fitted effect of over 55% in size; for activity change, negative = cytotoxicity: % is set by controls: 0 for no effect and ±100 for the full control effect
# Method in brief: as §2
# [10] = test system: CASKI; test: as above; conditions: Gynecologic cancer cell panel viability, ATPlite luminescence, 48 h; activity change, negative = cytotoxicity: at 57.5 µM (top of the series)
# Method in brief: as §2
# [11] = test system: PA-1; test: as above; conditions: Gynecologic cancer cell panel viability, ATPlite luminescence, 48 h; series mostly up to 57.5 µM
# Method in brief: as §2
# [12] = test system: Zika virus NS2B-NS3 protease (unlinked complex); test: Primary screen GU Rhodamine qHTS for Zika virus inhibitors: Unlinked NS2B-NS3 protease assay (AID 1347159); note: nearly all actives have a fitted effect of over 60% in size
# Method in brief: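 A qHTS format was used, with compound concentrations ranging up to 114 microM. Each compound was preincubated with 25 nM NS2B-NS3 protease, and the substrate was then added at 1.5 microM. Curves were fitted with a 4-parameter Hill model.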
# [13] = test system: Es-2; test: Primary qHTS to identify gynecologic anti-cancer compounds using libraries of approved drugs and bioactive compounds (AID 1345084); conditions: Gynecologic cancer cell panel viability, ATPlite luminescence, 48 h; series mostly up to 57.5 µM; note: nearly all actives have a fitted effect of over 55% in size; for activity change, negative = cytotoxicity: % is set by controls: 0 for no effect and ±100 for the full control effect
# Method in brief: as §2
# [14] = test system: Tov-21-G; test: as above; conditions: Gynecologic cancer cell panel viability, ATPlite luminescence, 48 h; activity change, negative = cytotoxicity: at 57.5 µM (top of the series)
# Method in brief: as §2
# [15] = Primary qHTS for inhibitors of nuclear receptor binding SET domain protein 2 (NSD2) in an isogenic RCH-ACV NSD2 p.E1099K mutant (9B) (AID 1645876); note: nearly all actives have a fitted effect of over 70% in size
# [16] = test system: Hek293T; test: Primary qHTS to identify gynecologic anti-cancer compounds using libraries of approved drugs and bioactive compounds (AID 1345084); conditions: Gynecologic cancer cell panel viability, ATPlite luminescence, 48 h, control line for the selectivity index; series mostly up to 57.5 µM; note: nearly all actives have a fitted effect of over 55% in size; for activity change, negative = cytotoxicity: % is set by controls: 0 for no effect and ±100 for the full control effect
# Method in brief: as §2
# [17] = test system: JEG-3; test: as above; conditions: Gynecologic cancer cell panel viability, ATPlite luminescence, 48 h; series mostly up to 57.5 µM
# Method in brief: as §2
# [18] = test system: OV90; test: as above; conditions: Gynecologic cancer cell panel viability, ATPlite luminescence, 48 h; series mostly up to 57.5 µM
# Method in brief: as §2
# [19] = test system: Tov112D; test: as above; conditions: Gynecologic cancer cell panel viability, ATPlite luminescence, 48 h; activity change, negative = cytotoxicity: at 57.5 µM (top of the series)
# Method in brief: as §2
# Potency is the fitted concentration of half-maximal effect; tags give direction and shape of the fitted curve.
compound,measurement,setting,value
OC(CC1c2ccccc2-c2cncn21)C1CCCCC1 (stereo not drawn),Potency,[1],"inconclusive: 11.6 µM [inhibitor, partial curve]"
same,Potency,[2],"inconclusive: 14.5 µM [inhibitor, partial curve, poor fit]"
same,Potency,[3],"inconclusive: 14.6 µM [inhibitor, single point]"
same,Potency,[4],"inconclusive: 18.4 µM [inhibitor, single point]"
same,Potency,[5],"inconclusive: 16.4 µM [inhibitor, single point]"
same,Potency,[6],inactive
same,Potency,[7],inactive
CC(C)C[C@@H](C(=O)N[C@@H](Cc1ccc(OCc2ccccc2)cc1)C(=O)NC(C)(C)C)N(C)Cc1ccc(C(C)(C)C)cc1,Potency,[8],"inconclusive: 1.68 µM [inhibitor, partial curve]"
same,max response,[3],inactive: -7.62%
same,Potency,[4],"inconclusive: 10.3 µM [inhibitor, partial curve, poor fit]"
same,Potency,[5],"inconclusive: 29.1 µM [inhibitor, single point]"
same,Potency,[9],"inconclusive: 39.8 µM [rising, partial curve, poor fit]"
same,Potency,[7],"inconclusive: 20 µM [rising, partial curve, poor fit]"
CC(=O)O[C@H]1CC2C(COC(=O)CC(C)C)=CO[C@@H](OC(=O)CC(C)C)C2[C@]12CO2 (stereo partly drawn),Potency,[1],"inconclusive: 8.93 µM [inhibitor, single point]"
same,Potency,[3],"inconclusive: 14.2 µM [inhibitor, single point]"
same,Potency,[4],"inconclusive: 8.93 µM [inhibitor, single point]"
same,Potency,[5],"inconclusive: 7.96 µM [inhibitor, partial curve, poor fit]"
same,Potency,[9],"inconclusive: 17.8 µM [cytotoxic, single point]"
same,Potency,[10],"inconclusive: 10 µM [cytotoxic, single point]"
same,Potency,[11],"inconclusive: 11.2 µM [cytotoxic, single point]"
same,Potency,[7],"inconclusive: 15.8 µM [cytotoxic, single point]"
O=C(Nc1ccc(-n2nc(C(F)(F)F)cc2C(F)(F)F)cc1)c1ccncc1F,Potency,[1],"inconclusive: 20.6 µM [inhibitor, partial curve, poor fit]"
same,Potency,[12],"inconclusive: 56.2 µM [inhibitor, partial curve, poor fit]"
same,Potency,[2],"inconclusive: 4.09 µM [inhibitor, partial curve]"
same,Potency,[3],"inconclusive: 29.1 µM [inhibitor, single point]"
same,Potency,[4],"inconclusive: 23.1 µM [inhibitor, single point]"
same,Potency,[5],"inconclusive: 20.6 µM [inhibitor, single point]"
same,Potency,[9],"inconclusive: 4.47 µM [rising, partial curve, poor fit]"
same,Potency,[13],inactive
same,Potency,[11],"inconclusive: 25.1 µM [cytotoxic, single point]"
same,Potency,[7],inactive
same,Potency,[14],inactive
N#Cc1ccc(-c2ccc(S(=O)(=O)Nc3cccc(N)n3)cc2)cc1,Potency,[1],inactive
same,Potency,[12],"inconclusive: 50.1 µM [inhibitor, partial curve]"
same,Potency,[15],"inconclusive: 12.9 µM [inhibitor, partial curve]"
same,Potency,[2],"inconclusive: 12.9 µM [inhibitor, partial curve]"
same,Potency,[3],"inconclusive: 29.1 µM [inhibitor, single point]"
same,Potency,[4],"inconclusive: 25.9 µM [inhibitor, single point]"
same,Potency,[5],"inconclusive: 16.4 µM [inhibitor, single point]"
same,Potency,[9],"inconclusive: 1.41 µM [cytotoxic, single point]"
same,Potency,[16],"inconclusive: 39.8 µM [cytotoxic, single point]"
same,Potency,[7],"inconclusive: 17.8 µM [cytotoxic, partial curve, poor fit]"
CN1CCC(NC(=O)c2cc(-c3c(O)cc(O)cc3Oc3ccc([N+](=O)[O-])cc3)on2)CC1,Potency,[15],active: 0.23 µM
same,Potency,[2],active: 0.23 µM
same,Potency,[8],"inconclusive: 5.97 µM [inhibitor, partial curve]"
same,Potency,[3],active: 0.366 µM
same,Potency,[4],active: 0.206 µM
same,Potency,[5],"inconclusive: 0.146 µM [inhibitor, full curve]"
same,Potency,[6],active: 0.708 µM
same,Potency,[9],active: 0.398 µM
same,Potency,[10],"inconclusive: 0.631 µM [cytotoxic, full curve]"
same,Potency,[13],"inconclusive: 3.16 µM [cytotoxic, full curve]"
same,Potency,[16],active: 1 µM
same,Potency,[17],"inconclusive: 5.01 µM [cytotoxic, partial curve]"
same,Potency,[18],"inconclusive: 7.08 µM [cytotoxic, full curve]"
same,Potency,[11],active: 0.794 µM
same,Potency,[7],active: 1.58 µM
same,Potency,[19],"inconclusive: 0.891 µM [cytotoxic, full curve]"
